Assay results taken from publication PMC3672314 (Metallomics : integrated biometal science, 2013).

Biological target: the molecule itself
Assay: SEC

B1: Recombinant His-Tagged TfR (soluble human transferrin receptor 1) (receptor)
chain: not shown
stoichiometry N: 2
